Assay results as given in PMC4336329 (PLoS ONE, 2015).
Among all 310,000 compounds or so, about 14,000 (4.5%) showed an effect of 50% or more. The effect is printed as a negative number. The list shows a part of the results.

target: human ether-à-go-go-related gene (hERG) potassium channel (human, UniProt Q12809); test: primary screen, population patch clamp on CHO cells stably expressing hERG
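Note: peak tail current of the secondary pulse compared with the same well before compound.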

Chain of human ether-à-go-go-related gene (hERG) potassium channel (Q12809 whole entry, looked up): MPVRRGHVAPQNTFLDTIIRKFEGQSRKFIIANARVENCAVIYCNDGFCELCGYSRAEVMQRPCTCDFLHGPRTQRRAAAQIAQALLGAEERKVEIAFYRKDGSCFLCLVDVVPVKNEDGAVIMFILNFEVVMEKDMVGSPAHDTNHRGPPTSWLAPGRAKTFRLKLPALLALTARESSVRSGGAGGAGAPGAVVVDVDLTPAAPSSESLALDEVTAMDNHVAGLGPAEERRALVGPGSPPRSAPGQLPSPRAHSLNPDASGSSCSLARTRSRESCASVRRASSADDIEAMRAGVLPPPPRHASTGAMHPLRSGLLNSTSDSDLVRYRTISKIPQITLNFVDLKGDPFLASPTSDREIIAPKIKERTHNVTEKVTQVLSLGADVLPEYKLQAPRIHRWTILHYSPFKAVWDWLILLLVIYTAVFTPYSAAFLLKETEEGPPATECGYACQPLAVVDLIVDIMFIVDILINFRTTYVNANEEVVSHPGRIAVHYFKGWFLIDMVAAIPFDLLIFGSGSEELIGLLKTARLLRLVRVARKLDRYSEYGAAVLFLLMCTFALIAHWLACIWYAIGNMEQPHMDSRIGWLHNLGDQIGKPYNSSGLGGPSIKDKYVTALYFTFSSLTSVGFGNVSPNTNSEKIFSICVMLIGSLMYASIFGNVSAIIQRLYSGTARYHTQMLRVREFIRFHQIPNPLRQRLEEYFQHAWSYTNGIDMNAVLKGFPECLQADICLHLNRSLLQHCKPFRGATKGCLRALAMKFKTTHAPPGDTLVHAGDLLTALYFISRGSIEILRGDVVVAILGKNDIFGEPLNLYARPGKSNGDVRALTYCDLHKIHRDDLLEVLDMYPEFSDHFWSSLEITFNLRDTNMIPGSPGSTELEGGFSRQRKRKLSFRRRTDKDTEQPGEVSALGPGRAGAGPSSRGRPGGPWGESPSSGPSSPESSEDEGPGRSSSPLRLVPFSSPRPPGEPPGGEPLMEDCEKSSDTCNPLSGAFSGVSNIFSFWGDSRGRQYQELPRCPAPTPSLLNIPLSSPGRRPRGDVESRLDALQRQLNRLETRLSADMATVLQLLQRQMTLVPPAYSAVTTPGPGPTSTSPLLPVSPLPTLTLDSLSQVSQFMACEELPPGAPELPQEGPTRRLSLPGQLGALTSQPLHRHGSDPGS

Row | Compound | hERG current change (%, negative = inhibition) at 10uM [%]
1 | CCc1c(O)nc(SCC(=O)NC(C)(C)C)n(-c2ccccc2)c1=O | 0.418
2 | Cc1nn(CC(=O)Nc2cccnc2)c(C)c1[N+](=O)[O-] | 13.9
3 | NS(=O)(=O)c1ccc(CCNC(=O)c2ccccc2OCc2ccc(F)cc2)cc1 | 4.16
4 | CC1(C(=O)Nc2nccs2)Cc2ccccc2C(=O)O1 (centres unmarked) | -7.82
5 | O=C(NCc1ccccc1)c1cccc(COc2cc(Cl)ccc2Cl)c1 | 6.82
6 | Cc1[nH]c(N=Nc2ccccc2)nc1N=Nc1ccccc1 | 16
7 | CCN(C(=O)COC(=O)c1ccc(Br)o1)C1CCCCC1 | 2.17
8 | C/C(=N/NC(=O)c1nnn(-c2nonc2N)c1-c1ccccc1)c1ccc2c(c1)OCO2 | 5.6
9 | CS(=O)(=O)Nc1ccc(S(=O)(=O)N2CCOCC2)cc1 | 3.15
10 | CCCCN(CC)C(=O)CN(C)S(=O)(=O)c1cccc2nsnc12 | 2.73
11 | CCOCCCNC(=O)C1CCN(C(=O)Nc2ccc(C)cc2)CC1 | -3.65
12 | COc1ccc(Cl)cc1N(CC(=O)N1CCCCC1)S(C)(=O)=O | 12.1
13 | O=C(Cn1c(=O)oc2cc(S(=O)(=O)N3CCCCC3)ccc21)N1CCCCC1 | 10.4
14 | N#Cc1c(C(F)(F)F)cc(=O)[nH]c1SCC(=O)O | 9.28
15 | C=CCn1c(SCC(=O)OC)nc2sc3c(c2c1=O)CCN(C)C3 | -7.94
16 | CC(C)Cc1nnc(NC(=O)CCC(=O)NCCc2ccccc2)s1 | -16
17 | COc1ccc(N(C(=O)Cn2nnc(-c3ccccc3F)n2)C(C(=O)NCC2CCCO2)c2ccc(Cl)cc2)cc1 (centres unmarked) | 22.6
18 | N#Cc1nc(-c2cccs2)oc1NCc1ccccc1 | -1.31
19 | CSc1ccccc1C(=O)N1CCCC(CCC(=O)NCc2ccc(F)c(F)c2)C1 (centres unmarked) | -6.23
20 | CCCCSC(=O)Nc1ccccc1 | -0.628
21 | CC1CC(C)CN(C(=O)C2CCCN(S(=O)(=O)c3cnc[nH]3)C2)C1 (centres unmarked) | 7.94
22 | CC1CN(C(=O)c2ccc(NS(=O)(=O)c3ccc(F)cc3)cc2)CC(C)O1 (centres unmarked) | 3.67

Row | Compound | hERG current change (%, negative = inhibition) at 10uM [%]
23 | O=C(Nc1sc2c(c1C(=O)O)CCC2)c1ccccc1Cl | 27.4
24 | CCOc1ccccc1C(=O)N[C@H](C(=O)Nc1ccc(OC)c(S(=O)(=O)N2CCOCC2)c1)C(C)C | 1.48
25 | Cc1nc(SCCOc2ccccc2F)[nH]c(=O)c1Cc1ccccc1 | 46.9
26 | CSc1ccc2c(c1)C(N1CCN(C)CC1)Cc1ccc(F)cc1S2.O=C(O)/C=C\C(=O)O (centres unmarked) | -58.8
27 | CCOC(=O)CC1=C(C(=O)OCC)C(c2cc(OC)c(OC)cc2OC)C(C#N)=C(N)O1 (centres unmarked) | -0.565
28 | O=C(Nc1ccc2oc(-c3ccccc3Cl)nc2c1)c1ncn[nH]1 | 15.5
29 | O=C(Nc1cc(=O)[nH]c2ncnn12)c1ccco1 | 3.77
30 | Cc1cccc(C)c1OCCN1CCCC1 | 0.402
31 | COC(=O)[C@]1(CC(C)C)N[C@H](c2ccc(-c3ccc(Cl)c(Cl)c3)cc2)[C@@H]2C(=O)N(C)C(=O)[C@@H]21.O=C(O)C(F)(F)F | 5.2
32 | CCN1CCCC1CNCc1ccc(OCc2ccc(Cl)nc2)c(OC)c1.Cl (centres unmarked) | -39.1
33 | O=C(C1Cc2ccccc2CN1S(=O)(=O)c1cccs1)N1CCCCC1 (centres unmarked) | -13.4
34 | COc1ccc(OC)c(NC(=O)CC2C(=O)NCCN2C(=O)Nc2cccc(Cl)c2)c1 (centres unmarked) | 3.42
35 | Cc1ccc(S(=O)(=O)N(C)CC(=O)OCC(=O)N2CCCC2=O)cc1 | 4.5
36 | COc1cccc(NC(=O)c2nnn(CC(=O)Nc3cc(C)cc(C)c3)c2N)c1 | 13.5
37 | CCOCC(=O)Nc1nnc(C)s1 | 13
38 | O=C(O)CCCC(=O)N1N=C(c2ccccc2)CC1c1cccs1 (centres unmarked) | -0.778
39 | Cc1ccc(S(=O)(=O)N/N=C\c2ccc(C)o2)cc1 | 3.51
40 | O=C(Cn1c2c(c(=O)n3ncnc13)CCC2)N/N=C/c1ccc(Cl)cc1 | -21.4
41 | CCCCCN(C(=O)CCC(=O)OCC(=O)NCc1cccc(OC)c1)c1c(N)n(CCCC)c(=O)[nH]c1=O | -0.375
42 | CCN1C(=O)c2ccccc2Sc2ccc(C(=O)NCCCN3CCCCC3)cc21 | -44.3
43 | CC(NC(=O)c1ccc(N(C)C)c([N+](=O)[O-])c1)c1ccc(-n2ccnc2)cc1 (centres unmarked) | -62.9
44 | Cc1ccc(Cn2c(C(C)Nc3nc(-c4ccc(Cl)c([N+](=O)[O-])c4)cs3)nc3cc(C(F)(F)F)ccc32)cc1 (centres unmarked) | 5.46
